# Laboratory results published in ChEMBL document CHEMBL4888484, “Replenishing the malaria drug discovery pipeline: Screening and hit evaluation of the MMV Hit Generation Library 1 (HGL1) against asexual blood stage Plasmodium falciparum ,using a nano luciferase reporter read-out” (2022).
# About 540 (0.36%) of roughly 150,000 compounds showed an effect of 50% or more. The list shows a part of the results.
# System: Plasmodium falciparum
# Experiment: Primary screen in NF54 nanoGlo assay, in single point, at 2uM, 72h; a lower Z score goes with more inhibition
# Format: functional, Erythrocyte
# Details: timepoint 72 hour
Structure (SMILES),% Inhibition [%],Z score
O=C(NCCCCc1nc(-c2ccccn2)cs1)[C@@H]1COCCO1,-11,1.49
CC(C)(C)c1nnc(C(=O)NC[C@H]2CCC3(CCOCC3)O2)o1,-10,1.99
Clc1cccc(CN2CC(c3nc(-c4cccnc4)no3)C2)c1,-3,0.6
COc1ccccc1CCN1Cc2cc(NC(=O)c3cccs3)ccc2O[C@@H](C)C1=O,5,-0.55
Cc1cc(NC(=O)[C@@H](OC(=O)CCC2CCCC2)C(C)C)no1,9,-1.03
COc1ccc(N2C(=O)c3ccccc3[C@]2(O)c2ccccc2)cc1OC,2,-0.26
C[C@@H]1CN(C(=O)c2cccn2C2CC2)CC[C@@]1(O)C1CCOCC1,-14,1.67
Cc1noc(CNC(=O)Nc2cccc3c2OC(C)(C)C3)n1,-3,0.37
Fc1ccc(NCCCO[C@H]2CCOC2)nc1,-1,0.16
C[C@H](NCC1(Cn2ccnc2)CC1)C(=O)NC1CCCC1,2,-0.32
Cc1cc(C)c(C(=O)O)cc1NC(=O)CCc1ccnn1C,-7,1.19
CC(C)=CCC/C(C)=C/CNC(=O)c1cncs1,6,-0.92
C[C@H](NCc1ccccc1CN1CCCCC1)C(=O)N1CC(=O)Nc2ccccc21,-18,2.05
COCCOC[C@H]1CCN(C(=O)c2ccc3[nH]ccc3c2)C1,-14,1.88
COC(=O)c1cc(C(=O)NC2CCCCCC2)no1,-6,0.99
COc1ccc(C(=O)N(Cc2cccc(C)c2)[C@@H]2CCCC[C@H]2NC(=O)[C@@H]2CCCN2C(=O)c2ccc(Cl)cc2Cl)cc1,-2,0.14
COC(=O)c1cc2n(n1)C[C@@](C)(C(=O)NC1CCC(C)CC1)N(Cc1ccc(OC(C)C)cc1)C2=O (some centres undefined),12,-1.36
COc1cc(=O)[nH]cc1C(=O)Nc1cccc(CN2CCOCC2)n1,5,-0.94
CC1(C)C[C@H]1C(=O)N1CC[C@@]2(C(=O)O)CCC[C@@H]12,-8,1.24
Cn1ncc2c1NC(=O)C[C@@H]2c1cc(Cl)c2c(c1)OCO2,1,-0.08
FC(F)(F)c1nnc(CN2CCCC[C@H]2c2cn[nH]c2)s1,-9,1.02
C#CCN(C(=O)CCCc1ccccc1)[C@H]1CCS(=O)(=O)C1,-7,0.89
O=C(c1ccc2nsnc2c1)N1CCn2nc3c(c2C1)CCC3,17,-2.22
Cn1nc(C(=O)N2CCCC2)c2c1CN(C(=O)Nc1ccccc1C(F)(F)F)C2,-8,0.95
COCc1noc([C@@H]2CN(S(=O)(=O)Cc3ccc(F)cc3)C[C@H]2C(N)=O)n1,-1,0.15
CCCN(CC(F)F)S(=O)(=O)c1cccc(Cl)c1C#N,-19,2.94

Structure (SMILES),% Inhibition [%],Z score
Cc1c(C(=O)N2CCC3(C2)OCCO3)cnn1CCO[C@@H]1CCCCO1,-1,0.17
C=CCCN1C(=O)Nc2ccccc2S1(=O)=O,6,-0.83
Cc1nc2cc(C(=O)N3CCC(N4CCC(C(=O)NC5CC5)CC4)CC3)ccc2s1,2,-0.27
O=C(C1CCC1)N1CCN(Cc2ccc(Cl)cc2)[C@@H]2CS(=O)(=O)C[C@@H]21,6,-0.73
CC[C@H]1CN(CC(C)(C)C)Cc2cc(OC)ccc2O1,-14,2.09
CCC[C@H]1C(=O)NCCN1C(=O)c1cncnc1C,2,-0.4
NC(=O)c1cncc(NCc2cccnc2N2CCCCCCC2)n1,7,-0.99
O[C@H]1[C@H](NCc2ccc(Cl)cc2)[C@@H](c2ccc(N3CCOCC3)nc2)C[C@H]1O,-2,0.32
CCOc1ccc([C@H](CNC(=O)c2cccc(N3C(=O)CCS3(=O)=O)c2)N2CCOCC2)cc1,1,-0.17
CCn1cnc2c(N3CCC[C@H](c4ccncc4)C3)ncnc21,76,-10.16
CCn1cc(NC[C@@H]2CC=CCC2)cn1,11,-1.23
COc1ccc(NC(=O)c2c[nH]nc2-c2ccccc2)cn1,4,-0.76
CC1(C)C(=O)Nc2cc(C(=O)NC3C4CCOC4C34CCC4)ccc21 (centres undefined),-10,1.42
COc1ncccc1C(=O)NC[C@H](C)O,-11,1.09
COc1ccc(F)cc1C(NC(=O)c1nccnc1O)[C@H]1C[C@H](O)C1 (some centres undefined),-9,1.4
O=C1C[C@@H]2O[C@H](CN(Cc3ccc(F)c(F)c3)C[C@@H]3CN(CCO3)C(=O)[C@@H]3C[C@@H](CN3Cc3cccnc3)N1)[C@@H](O)[C@H]2O,1,-0.11
CC[C@]1(O)CCCN(C(=O)CCCN2CCCC2=O)C1,-2,0.36
C[C@H](Nc1cnn(CC(F)F)c1)c1nc2ccccc2o1,-3,0.42
O=C(NCc1ccccc1Cl)c1cc(C(=O)NCc2ccccc2Cl)cc(C(=O)NCc2ccccc2Cl)c1,-1,0.15
CC(C)C[C@H](C)S(=O)(=O)Nc1cccc(-c2nncn2C)c1,-9,1.11
CCOCc1ccccc1CNC(=O)CN1CCc2ncnc(OC)c2C1,-2,0.3
CC(C)NC(=O)COC(=O)C1=CCCCCC1,21,-2.41
Cc1nccc(N2CCCN(CC3CCC3)CC2)n1,-5,0.59
CC1CCN(c2nc3c(c(Oc4ccc(F)c(F)c4)n2)CN(C(=O)Cc2ccc(F)cc2)CC3)CC1,1,-0.14
O=C(Cc1ccc2c(c1)OCO2)N1CC[C@H](N2CCOC2=O)C1,-10,1.72
Cc1ccc2c(c1)CCCN2C(=O)c1cccc(N(C)C)c1,1,-0.14
